The list shows a part of the results. No stated cut-off is given here; in the data, active = 3.2 or more and inactive = the rest. The signal is at background level for most entries.
B1: CDN1B_HUMAN_89_YA (peptide)
chain: GSLPEFAYRPPRPPK
B2: CLD3_HUMAN_198_YA (peptide)
chain: ATATKVVYSAPRSTG
B3: ABL2_HUMAN_261 (peptide)
chain: GLVTTLHYPAPKCNK
B4: CENPF_HUMAN_158 (peptide)
chain: TPLTPSQYYSGSKYE
B5: CI078_HUMAN_147 (peptide)
chain: KNAEDCLYELPENIR
B6: CELR3_HUMAN_3051_YA (peptide)
chain: AASAGRIYAGGGTGS
B7: ABL2_HUMAN_272 (peptide)
chain: KCNKPTVYGVSPIHD
B8: CDK5_HUMAN_15 (peptide)
chain: EKIGEGTYGTVFKAK
B9: CLH1_HUMAN_184 (peptide)
chain: VVGAMQLYSVDRKVS
B10: CDKL5_HUMAN_171 (peptide)
chain: NNANYTEYVATRWYR
B11: CKAP2_HUMAN_599_YA (peptide)
chain: ANVSTTPYLQSVKKK
B12: CEAM1_HUMAN_493 (peptide)
chain: NKMNEVTYSTLNFEA
B13: ABL2_HUMAN_185 (peptide)
chain: VSRSAAEYLLSSLIN
B14: CHN2_HUMAN_153 (peptide)
chain: KMTTNPIYEHIGYAT
B15: CG031_HUMAN_442 (peptide)
chain: TKKTEDLYWRQQSLK
B16: CH60_HUMAN_90 (peptide)
chain: SIDLKDKYKNIGAKL
B17: CLH2_HUMAN_899 (peptide)
chain: CFLRENAYYDSSVVG
B18: CDK2_HUMAN_19 (peptide)
chain: EGTYGVVYKARNKLT

molecular target: SHP2 C-SH2 domain E139D; assay: enrichment score (SH2-bound / input frequency) (ratio); bacterial display of known human phosphotyrosine sites (pTyr-Var adds point mutants) read by sequencing; higher = stronger binding; tyrosines were phosphorylated by kinases first; details: peptide library: Human pTyr
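Further: displayed peptides selected on beads carrying the immobilized SH2 domain, with library peptides lacking any tyrosine serving as negative controls.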

Enrichment score, active:
B12 3.85

Enrichment score, inactive:
B1 0.572
B2 2.25
B3 1.33
B4 0.666
B5 1.05
B6 0.621
B7 0.946
B8 0.786
B9 0.641
B10 1.89
B11 1.2
B13 1.04
B14 0.772
B15 0.722
B16 1.15
B17 1.16
B18 0.984

molecular target: SHP2 C-SH2 domain wild-type; assay: as above; details: peptide library: Human pTyr

Enrichment score, active:
B2 5.55
B12 6.81

Enrichment score, inactive:
B1 0.615
B3 0.949
B4 0.567
B5 0.722
B6 0.533
B7 0.966
B8 0.674
B9 0.478
B10 1.47
B11 0.86
B13 0.929
B14 0.7
B15 1.06
B16 1.08
B17 1.11
B18 0.547

molecular target: SHP2 N-SH2 domain L43F; assay: as above; details: peptide library: Human pTyr

Enrichment score, active:
B12 12.7

Enrichment score, inactive:
B1 0.526
B2 0.859
B3 0.896
B4 1.07
B5 0.88
B6 0.64
B7 0.818
B8 0.617
B9 0.495
B10 1.79
B11 0.905
B13 0.954
B14 0.719
B15 1.22
B16 0.96
B17 1.24
B18 0.589

molecular target: SHP2 N-SH2 domain T42A; assay: as above; details: peptide library: Human pTyr

Enrichment score, inactive:
B1 0.513
B2 1.05
B3 1.05
B4 0.563
B5 0.827
B6 0.534
B7 0.97
B8 0.915
B9 0.527
B10 1.42
B11 1.06
B13 0.845
B14 0.499
B15 1.02
B16 0.667
B17 1.31
B18 0.576

Enrichment score, active:
B12 11.6

molecular target: SHP2 N-SH2 domain T52S; assay: as above; details: peptide library: Human pTyr

Enrichment score, inactive:
B1 0.579
B2 0.594
B3 1.1
B4 0.501
B5 0.953
B6 0.397
B7 0.974
B8 0.84
B9 0.493
B10 2.06
B11 1.04
B13 1.16
B14 0.714
B15 1.09
B16 0.994
B17 1.29
B18 0.559

Enrichment score, active:
B12 7.26

molecular target: SHP2 N-SH2 domain wild-type; assay: as above; details: peptide library: Human pTyr

Enrichment score, inactive:
B1 0.765
B2 0.876
B3 1.3
B4 0.652
B5 0.872
B6 0.485
B7 0.964
B8 0.99
B9 0.491
B10 1.58
B11 1.25
B12 1.68
B13 1.1
B14 0.774
B15 1.23
B16 1.45
B17 1.31
B18 0.767
